Measured values published in the supplement of paper PMC4967469.

Columns and labels:
Assay in all cases: Viability of human cancer cell lines after 72 h of drug (GDSC screen)
Bleomycin = compound: Cc1c(N)nc([C@H](CC(N)=O)NC[C@H](N)C(N)=O)nc1C(=O)N[C@H](C(=O)N[C@H](C)[C@@H](O)[C@H](C)C(=O)N[C@H](C(=O)NCCc1nc(-c2nc(C(=O)NCCC[S+](C)C)cs2)cs1)[C@@H](C)O)[C@@H](OC1OC(CO)C(O)C(O)C1OC1OC(CO)C(O)C(OC(N)=O)C1O)c1cnc[nH]1 [Bleomycin]; details: top dose 50 µM; screen: GDSC drug entry 1378; top dose inferred
Method: (§1)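 Human cancer cell lines in 384-well plates, medium with 10% serum, drug for 72 h over a 256-fold dose range (nine 2-fold or five 4-fold steps up to the top dose). Adherent lines were fixed and stained with the nucleic acid dye Syto60, suspension lines read with resazurin; signal relative to control wells, capped at 0 and 100%. One two-parameter sigmoid per drug and line, fitted in a mixed model over all curves with the slope shared within a line.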

Tamoxifen = compound: CC/C(=C(\c1ccccc1)c1ccc(OCCN(C)C)cc1)c1ccccc1 [Tamoxifen]; details: top dose 5 µM
Method: as §1

HG-5-88-01 = compound: COc1cc(N2CCC(C(N)=O)CC2)ccc1Nc1nc(N)c(Cl)c(Nc2ccccc2S(=O)(=O)C(C)C)n1 [HG-5-88-01]; details: top dose 10 µM; top dose inferred
Method: as §1

Elesclomol = compound: CN(NC(=O)CC(=O)NN(C)C(=S)c1ccccc1)C(=S)c1ccccc1 [Elesclomol]; details: top dose 0.2 µM; top dose inferred
Method: as §1

OSI-930 = compound: O=C(Nc1ccc(OC(F)(F)F)cc1)c1sccc1NCc1ccnc2ccccc12 [OSI-930]; details: top dose 10.24 µM
Method: as §1

Masitinib = compound: Cc1ccc(NC(=O)c2ccc(CN3CCN(C)CC3)cc2)cc1Nc1nc(-c2cccnc2)cs1 [Masitinib]; details: top dose 20 µM
Method: as §1

BX-912 = compound: O=C(Nc1cccc(Nc2ncc(Br)c(NCCc3cnc[nH]3)n2)c1)N1CCCC1 [BX-912]; details: top dose 10.24 µM; top dose inferred
Method: as §1

VNLG/124 = compound: CCCC(=O)OCc1ccc(OC(=O)/C=C(C)/C=C/C=C(C)/C=C/C2=C(C)CCCC2(C)C)cc1 [VNLG/124]; details: top dose 5.12 µM; top dose inferred
Method: as §1

Row | Cell Line | AUC (Bleomycin) | IC50 (Bleomycin) [µM] | AUC (Tamoxifen) | IC50 (Tamoxifen) [µM] | AUC (HG-5-88-01) | IC50 (HG-5-88-01) [µM] | AUC (Elesclomol) | IC50 (Elesclomol) [µM] | AUC (OSI-930) | IC50 (OSI-930) [µM] | AUC (Masitinib) | IC50 (Masitinib) [µM] | AUC (BX-912) | IC50 (BX-912) [µM] | AUC (VNLG/124) | IC50 (VNLG/124) [µM]
1 | PWR-1E (prostate, adherent) | 0.26 | 0.647 | 0.986 | > 5 | 0.919 | > 10 | 0.41 | 0.00709 |  |  |  |  |  |  |  | 
2 | ESO26 (oesophagus, adherent) | 0.653 | 8.05 | 0.961 | > 5 | 0.957 | > 10 | 0.48 | 0.0111 | 0.989 | > 10.2 | 0.879 | 18.5 | 0.811 | 5.07 | 0.989 | > 5.12
3 | OACp4C (oesophagus, adherent) | 0.792 | 27.8 | 0.973 | > 5 | 0.778 | 4.9 | 0.474 | 0.0105 | 0.982 | > 10.2 | 0.887 | > 20 | 0.669 | 2.1 | 0.949 | > 5.12
4 | RCC-JW (kidney, adherent) | 0.245 | 0.563 | 0.978 | > 5 | 0.979 | > 10 | 0.462 | 0.0098 | 0.955 | > 10.2 | 0.849 | 15.6 | 0.83 | 6.69 | 0.985 | > 5.12
5 | OVK-18 (ovary, adherent) | 0.637 | 7.82 | 0.968 | > 5 | 0.977 | > 10 | 0.598 | 0.024 | 0.905 | > 10.2 | 0.911 | > 20 | 0.932 | > 10.2 | 0.982 | > 5.12
6 | DOV13 (ovary, adherent) | 0.51 | 3.35 | 0.925 | > 5 | 0.866 | > 10 | 0.271 | 0.00249 | 0.972 | > 10.2 | 0.962 | > 20 | 0.978 | > 10.2 | 0.977 | > 5.12
7 | OVCA420 (ovary, adherent) | 0.69 | 12.8 | 0.913 | > 5 | 0.963 | > 10 | 0.647 | 0.0366 | 0.979 | > 10.2 | 0.974 | > 20 | 0.981 | > 10.2 | 0.974 | > 5.12
8 | D-566MG (glioma, adherent) | 0.548 | 4.22 | 0.959 | > 5 | 0.937 | > 10 | 0.524 | 0.0146 | 0.972 | > 10.2 | 0.873 | 18.7 | 0.803 | 4.98 | 0.984 | > 5.12
9 | RCC-JF (kidney, adherent) | 0.596 | 5.94 | 0.981 | > 5 | 0.975 | > 10 | 0.27 | 0.00253 | 0.968 | > 10.2 | 0.777 | 9.09 | 0.83 | 7.56 | 0.983 | > 5.12
10 | SK-MG-1 (glioma, adherent) | 0.293 | 0.807 | 0.986 | > 5 | 0.945 | > 10 | 0.41 | 0.00708 | 0.98 | > 10.2 | 0.816 | 11.3 | 0.897 | > 10.2 | 0.985 | > 5.12
11 | OCI-LY7 (B-cell lymphoma, suspension) | 0.975 | > 50 | 0.997 | > 5 | 0.996 | > 10 | 0.425 | 0.00824 |  |  |  |  |  |  |  | 
12 | MKN7 (stomach, adherent) | 0.853 | > 50 | 0.969 | > 5 | 0.976 | > 10 | 0.765 | 0.0991 |  |  |  |  |  |  |  | 
13 | D-423MG (glioma, adherent) | 0.184 | 0.273 | 0.978 | > 5 | 0.886 | > 10 | 0.525 | 0.0149 | 0.963 | > 10.2 | 0.875 | > 20 | 0.778 | 5.1 | 0.968 | > 5.12
14 | RCC-AB (kidney, adherent) | 0.659 | 9.91 | 0.96 | > 5 | 0.978 | > 10 | 0.778 | 0.107 | 0.948 | > 10.2 | 0.793 | 12.4 | 0.83 | 9.36 | 0.969 | > 5.12
15 | PEO1 (ovary, adherent) | 0.362 | 1.28 | 0.964 | > 5 | 0.892 | > 10 | 0.506 | 0.013 | 0.982 | > 10.2 | 0.956 | > 20 | 0.886 | > 10.2 | 0.982 | > 5.12

By IC50 is meant the dose at which the fit gives 50% viability; where the fit passes the top or lowest dose, that dose stands as a limit. AUC sums up the same curve from the lowest dose to the 256-fold higher top dose: 1 means no effect, lower means more sensitive. For part of these data: A top dose marked as inferred comes from the curve model; the source does not state it. For part of these data: An entry number marks a drug with two screens in the source, which often give different values.
